Assay results from the supplement of paper PMC3334620.
The full ranking holds about 33,000 sequences; the median of “E-score (-0.5 to 0.5)” is about -0.013, and the highest 2% start at about 0.3. The list shows a part of the results.

molecular target: T1, Msn1 (UniProt P22148); assay: PBM E-score (8-mer binding enrichment) (E-score (-0.5 to 0.5)); higher = stronger / more preferred TF binding; most listed sequences are background and not binding sites; conditions: protein concentration: 200 nM; construct: GST-full length
T1 sequence: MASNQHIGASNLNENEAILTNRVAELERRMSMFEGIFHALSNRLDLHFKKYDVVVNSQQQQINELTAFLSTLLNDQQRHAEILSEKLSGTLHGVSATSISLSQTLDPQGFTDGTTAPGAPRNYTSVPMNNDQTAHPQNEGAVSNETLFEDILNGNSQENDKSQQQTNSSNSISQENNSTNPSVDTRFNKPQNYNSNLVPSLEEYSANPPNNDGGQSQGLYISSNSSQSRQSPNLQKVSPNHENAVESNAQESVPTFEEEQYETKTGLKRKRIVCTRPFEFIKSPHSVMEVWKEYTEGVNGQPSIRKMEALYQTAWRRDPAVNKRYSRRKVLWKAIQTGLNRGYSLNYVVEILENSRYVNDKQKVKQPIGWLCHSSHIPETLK
In short: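 Full-length yeast transcription factors or their DNA-binding domains, GST-tagged and expressed with PURExpress, were applied at about 100-200 nM to universal all-10-mer Agilent arrays. These arrays had been made double-stranded by primer extension on fresh or once-stripped slides. Detection used fluorescent anti-GST, normalisation used masliner, and E-scores for ungapped eight-base words pooled with reverse complements came from the Universal PBM Analysis Suite.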

Sequence | PBM E-score
CTGTGAAG | -0.0581
CCCTGTGA | -0.274
CGAACAGC | -0.157
CCTGTTAC | 0.0468
CGATCTAC | -0.0258
GTTGCTAA | 0.0707
AGGCATCC | -0.16
ATTTCCCA | 0.187
ATAACACG | -0.0422
GGAAGTTA | -0.0774
AATCAAAC | 0.255
GGTTCATA | -0.124
CCCCCCGG | -0.364
CTAGCCGC | -0.0208
CCACTTAC | -0.133
AGAGATCC | -0.0104
ACTACAAT | 0.17
GGCGCGCC | 0.172
ATTGCAAG | -0.0753
AAGGCTAT | -0.137
CCCGAAAG | 0.0562
CATGTGGC | -0.0208
AGGCAGAA | -0.123
AGATCACA | -0.102
AAGAACGG | -0.0325

Sequence | PBM E-score
AGAAGGCC | -0.158
AAGTCATC | 0.00089
CGATTCTA | -0.0158
CTGCCAAA | 0.0491
CTACCGCC | -0.0358
AAAAGTCC | 0.467
AGTCCACT | -0.12
AAGAAGGT | -0.074
TGGAGGAA | -0.161
CGATAAGC | -0.0093
AGATAGGG | -0.0745
AGACCAAG | -0.121
ACCGGTAC | -0.0184
GAATGCAA | -0.193
ATGCGAAT | -0.0861
GAAAATGA | 0.0447
AATAATGA | -0.0153
ACGGGCAC | -0.218
AACCTTAT | -0.128
CCAGTCAA | 0.126
AACGGATA | 0.18
ACTCCGGA | 0.26
AATAGATC | 0.0278
CGCGAGGC | 0.0864
CCTTAGCC | -0.0421

Sequence | PBM E-score
TCTAAAGA | 0.205
ATGATAGC | 0.081
AAGAATTA | 0.0763
GAAAGTCA | 0.233
AAAGCCCA | -0.0978
ACCCGGAA | 0.0689
CAAAATTC | 0.196
TATTTAGA | 0.175
GTCTAGAA | 0.132
CTGAAGGC | -0.099
CATCCCCG | -0.0978
ATCTGGTC | 0.107
GACAAACA | 0.456
TGATGCAA | -0.0374
AATGCACT | 0.0779
CCATTGTA | 0.193
TACAAGCA | 0.153
TGCCGACA | 0.0657
ACGTATAT | -0.0231
CCCGAAAC | 0.0881
AACGCGAC | 0.12
ATTACCTC | -0.129
GCGTTAGA | -0.0741
AATTAACG | 0.0476
ATGCAAAG | -0.174

Sequence | PBM E-score
GGGCTTCA | -0.174
CAAACGCG | 0.143
ATAGTCAG | 0.0958
GCACCAGA | -0.0389
CCGCTTTC | -0.0394
AGCCGCAA | -0.104
CGACCTCG | 0.0004
ACAATAAT | 0.226
CACTCCTG | -0.0699
ACTGAAGC | -0.0558
TCACGAGA | -0.155
CCCAATTA | 0.00991
GAAGTGAC | 0.035
CCACATGA | -0.0225
CGAAGGGC | -0.133
CTCACGTC | -0.0704
AAAATATG | 0.25
GAAACGAA | 0.115
CGGGACTA | -0.0343
CGTGTGTC | 0.0945
ATGCTTCG | -0.0312
GCCAATTA | 0.0707
ACGTTTAG | 0.0819
ACAGGATC | -0.143
CTACAGGA | 0.172

Sequence | PBM E-score
CGGGCTCC | -0.163
AAATGATC | -0.0173
CAGGACCG | 0.0269
CGGGCGGA | -0.115
AAAGATAA | 0.14
GGCCTTAC | -0.18
CTTATCAC | -0.153
GGATGCGA | -0.263
ACCCTATA | -0.242
ATTCCATC | -0.0374
AGGAAACT | 0.025
AGCCAGTA | -0.221
AAATAAAA | 0.152
ACATTCAG | 0.118
TAGATATA | 0.0924
CTTACCAC | -0.136
GAGGAATC | -0.229
AATACAAC | 0.0955
AATAACCA | 0.0204
ATGATTAC | 0.0458
CGCACGGC | -0.0248
ATATAAAC | 0.165
AGTCGGCC | 0.0396
GGGTTTAA | -0.0514
TCGGGCAA | 0.159

Sequence | PBM E-score
GTTGCGAA | -0.00877
GTCGGTAA | -0.0694
AGACAGCG | -0.0898
CGACTTGC | -0.044
TACAGCTA | -0.321
ACGCAAAT | -0.138
CGTGAAAC | 0.0533
GTGAGGAA | -0.12
ACAATGAT | 0.207
TCCACGAA | 0.0823
CCCCACGA | -0.108
CATGAGGA | 0.00142
GACATTAA | 0.431
AGCTCCTC | -0.315
CCGTGCCC | -0.316
AACGATGC | -0.27
ATGTTGAA | 0.00843
AGTTTCAA | -0.0354
CTCAATGC | -0.152
AAACGAGT | 0.117
CGCCATCC | -0.325
GTAAACAA | 0.244
CACTCCAA | -0.0743
ATAGCTCC | -0.0819
CAAAAGTC | 0.282

Sequence | PBM E-score
ATGGGAAA | -0.0265
GTGTCTTA | 0.04
ACCATAGT | -0.0307
GCTATACA | -0.11
GCGTAATA | -0.091
AGTACGCG | 0.0601
GACTCGGC | -0.0674
GAATAGTC | 0.0177
TATCCCCA | -0.0644
AAGATCCA | -0.0273
CTTTCTTA | 0.146
GTTCAATA | -0.00627
CTTCCGGA | 0.132
AACCTCTG | -0.259
CCCTCCCA | -0.161
AACAAGTA | -0.0396
GGAAAGAA | -0.0445
ATGGTATA | 0.102
ACTGGGTC | -0.357
TGGCGCCA | -0.191
CCTGGGAC | 0.0273
CGGGGTCA | -0.0794
